According to publication PMC10668032:
The other results are listed elsewhere or left out. At the low end of the ranking the order means little.

target: SIX1-Q177R homeodomain (UniProt Q15475); experiment: universal protein binding microarray; details: Universal all-10-mer PBM (8x60K, AMADID 030236), 300 nM GST-tagged protein, Alexa Fluor 488 anti-GST; buffer, salt, pH and temperature not stated; high values mean tight binding; most listed sequences are background and not binding sites; double strand, one strand shown

Sequence	binding signal [E-score]
CTCTGAAC	-0.184
CACTATAA	0.253
GGCCACGA	-0.125
GGATCGAC	0.0853
ACGCGTAT	-0.0625
GTGGTGTA	0.481
CGAATGAA	-0.14
ATTCTAGG	0.107
ATCCTGAA	-0.158
CTTTGAGA	-0.0999
CCACTTCA	0.0622
AATAGACC	-0.0992
ACTGACTA	-0.082
ACACCCTC	0.474
ACCGTCAC	0.103
CAGAACCG	0.00298
CCGCAAGG	0.15
CGGAGAAA	-0.168
CTACTGGA	-0.0195
GAGATTGC	-0.0973
TAGAGTAA	0.199
CAATAACG	-0.151
CTCCAGGA	0.0126
GTGACCGA	-0.102
CAGGTCAA	-0.212

Sequence	binding signal [E-score]
CACCTTGA	0.177
CCTTATAA	0.179
AGCGCCAA	-0.184
ATACACAT	0.0906
GACAGTCC	-0.207
CACCCGTG	0.37
GCAGTTAC	0.0766
AGCTTGCC	-0.222
CCGACGAA	-0.127
GCTACTTA	-0.157
AAAGTGTG	0.184
AGCTAATG	-0.149
ATATCGGA	-0.0394
ACCCCCCC	0.31
AGTTCCAT	-0.192
GCACAGAC	-0.0626
AGCAACCC	-0.173
CATCGCTC	-0.17
ACACTTAA	0.316
ATCTCAGA	-0.00349
ATGCACAC	0.289
ACTACCAC	0.0315
AACCCAAT	-0.124
GACCATTA	-0.268
ATGCGGAC	0.0711

Sequence	binding signal [E-score]
AATACGCC	0.085
CTTTGAGC	-0.169
ATTGCGAG	-0.117
GGGTACGA	0.0965
GGGTTTGA	0.076
AGGGTGAA	-0.0425
ATACCATA	0.132
AGTTCGAC	-0.132
GAGTCTCA	-0.0058
AGCGATAA	-0.101
GGGCCAGA	0.0166
CCGGCTGC	0.0305
ATGACATG	-0.134
TGATTAAA	-0.0768
AACCAGGC	-0.0657
CCTTCAAC	-0.0886
AAACGATC	-0.185
ACTACGGG	0.147
CGATATCG	-0.108
AACCATCA	-0.149
CTGAGGCC	-0.246
GAGTCACC	0.157
GGACAAAA	-0.117
CCACGGGG	0.194
AGATCCAC	0.00024

Sequence	binding signal [E-score]
AAGCGACC	-0.0733
CTCAATGC	-0.148
AGGAGGAT	-0.0817
ATAGTGTA	0.391
CATTTGGC	-0.166
CTCTGTCC	-0.0676
GTCTACGA	-0.168
TGCTCTAA	-0.0176
TCTTAAAA	-0.318
CTAGTCCC	-0.19
AGATTAGG	-0.278
CCGGGTCA	0.285
TTACTGAA	-0.217
CATCTTAA	-0.105
ACCTGCAG	0.0645
AATGGTAA	-0.086
AGCGTTAC	0.0757
TACATAAA	-0.0372
AGCGCCTC	-0.164
AGCGTCCC	0.0752
AGCTATAG	-0.103
ATCGCGAG	0.00577
CTAACCTC	-0.036
CCCGCTTC	0.00549
AAGGCAAT	-0.361

Sequence	binding signal [E-score]
AGAACTCT	-0.051
GACGGCTA	-0.106
CAGCGCGG	0.0508
CGCTAAGC	-0.027
ACCCAGAA	0.179
CTTCAATC	-0.163
TGACTACA	0.0666
CTAGTACC	0.0993
CAAGACGG	0.0717
ATCAACCC	0.11
ACGGGGGG	0.141
AGCAATGC	-0.118
CATTCGAA	-0.225
TAAAAAGA	-0.266
AATAAAAG	-0.0151
ATTAACCC	0.187
AGCACGAC	0.0753
AATTACTG	-0.0851
AGGAGCAC	-0.00598
CTCTAGTA	0.0726
CAGAAATG	0.0828
CCAAAGCC	-0.174
CCCTTATA	0.0828
ACCCTGCG	0.107
AAACGGAC	-0.246

Sequence	binding signal [E-score]
CTGAGTTC	-0.0729
AGGCGAAG	-0.082
GTCAACTA	-0.0849
AACCTCCC	0.106
CTGTCATA	-0.0884
CCGTTGCA	0.0624
AACGTATA	-0.259
ACGGAAGA	-0.0672
GCGAACCA	-0.0706
CCAGAGCG	-0.0316
CAGTCTAC	-0.159
ATCTGAAG	-0.239
CGCCAGTC	0.0338
GCAACAGA	-0.162
CAGGCCGA	0.0294
ATGCAGGC	-0.00914
AGCCATTG	-0.121
GCTAAAGA	-0.212
ACTTGCCT	-0.0596
GCTGATTA	-0.152
CCTCCTCC	0.00537
CGCACAAG	0.0176
ACCCGGCT	0.202
CCAATCTA	-0.0409
CCACCAAC	0.0288

Sequence	binding signal [E-score]
AATAAGTA	-0.0835
GAGCGCCA	-0.0784
ACCCCCTG	0.328
CCCGTGCG	0.111
AATAAATT	-0.132
CGGAATAC	0.0967
AATTCACG	-0.2
AAAATAGC	-0.205
GGCATGAA	-0.0861
ATGATTCC	0.126
AGGGGGAG	-0.129
GTCCCGTA	-0.035
GATAAACC	-0.134
ATGCCGGC	-0.0853
CCAGACTC	-0.127
AACCGCAC	0.13
GAGAAAAC	-0.0866
GCTGAACC	-0.0567
CACTTGGG	0.0226
CCTATGGC	-0.181
CAGAAAAA	0.042
GAGACAGA	-0.189
AAAAGGCA	-0.208
ATCTTATA	-0.142
AGTCTAGA	-0.172

Sequence	binding signal [E-score]
GCTACCCC	0.23
AGGCGCGG	0.0386
AGATGCAC	0.0824
CCGATATC	0.0105
CACTGGCA	0.28
GTCCCAGA	-0.18
AGAGCTAC	-0.0507
AACTTCTC	-0.163
AAATGACG	-0.0479
CTGTACTC	-0.103
CAGTATGC	-0.252
CGAGGATA	0.114
TGAAACAA	-0.166
ACAACTTA	-0.128
CTCTCCAC	-0.0716
AATTTACG	-0.297
ATATCTCG	-0.275
CCATAAGA	-0.0471
AAAATGCC	-0.147
AAAGCCTT	-0.256
TTCCACAA	-0.0257
CTTGTGTC	0.168
CTTGAGGA	-0.138
GACCAGTC	-0.22
GATTACGA	-0.0295

Sequence	binding signal [E-score]
CACACGAA	0.217
AGTTTAGG	-0.0521
CTAGCATA	-0.225
GGCAATAA	-0.108
GTCCCCGA	0.0267
CGACAAGA	-0.0968
CTTATACC	-0.0517
CACCTAAA	0.207
AACGGAGA	-0.0541
CAGGTCTA	-0.218
CCATCAGC	0.11
CTCGTTAC	0.00123
GGTTTAAA	0.12
ACCGTACA	0.235
TTCCGCAA	-0.0173
TAGAGAAA	0.0615
AGTGCGTA	0.00653
CACCATAA	0.303
CAAAGAGA	-0.203
AGCCGTCC	-0.17
AGAAGAGG	-0.131
CCGTTCCG	-0.13
AGGGATCG	0.216
GGCATTTA	-0.0126
CCTGGGAG	0.129

Sequence	binding signal [E-score]
CTAAGTCC	-0.22
CACCTTTA	0.223
AATTTCTC	-0.219
CCGGAATC	-0.0601
GGGCCAAC	0.000965
CAGACCTG	-0.291
AATCGGTA	0.0182
GGAACCCA	0.181
AATCGACG	-0.213
CCTGTCTA	0.0327
AATACCCC	0.185
GATCCAGC	0.0517
CCCGGGCC	0.103
TTCTCCAA	-0.12
CCCCCCGC	0.248
GCAATAGA	-0.0871
AACTCCGA	-0.042
ACCGTCGA	0.0178
CATCCGGA	0.00453
ACCTTCCA	0.0566
TAAATCGA	-0.163
GCCTCTAC	-0.037
CAATGGAA	0.04
CCTTGTGC	0.037
AAGAGGCC	-0.323

Sequence	binding signal [E-score]
ACAATGCA	-0.0864
ACAGCACG	0.0102
ACCCGCCC	0.243
GAGTGTAA	0.42
GCAATCGA	-0.0211
AGGTTAGA	-0.208
CCAGTGCA	0.135
AGCTAATA	-0.0377
AAACCACC	-0.0529
ACGACTCT	0.147
AACAACGG	-0.042
TCGTTCAA	-0.0522
GTCACGAA	0.128
GCTCCATA	-0.103
GGAGATAA	-0.287
AAGTGATA	-0.0681
ATTTCTCA	-0.274
CTATGACA	0.117
ACATAGAA	-0.0382
CTTTGTAC	-0.0684
AACCAATT	-0.163
AATTTGAA	-0.313
CGATAGAA	-0.0273
GTAGCAGA	-0.18
CAGGGCAA	-0.12

Sequence	binding signal [E-score]
CACACAGA	0.0748
CGGGGTCA	0.269
ACGGTGAA	-0.0611
GATTCAAC	-0.022
TACTGCAA	-0.00197
AAGCTTCT	-0.317
CCTCAACC	0.0392
CGTAAATC	-0.0319
AGCCTTGG	-0.0656
ACCGAGTA	0.124
TCCATAGA	-0.147
ATTGATCG	-0.0864
CGTATCGC	0.094
CACACAAA	0.0473
CGCCACGC	-0.125
CGTTATTA	-0.0247
AATCGGCA	-0.148
GCCAGAAA	-0.148
AAGCAACG	-0.0351
ACTCTCTC	0.0212
CGTAATTA	-0.138
TGCTTGAA	-0.046
GCGTTACC	0.143
ACAGGGAG	0.0597
CTCCTGCA	-0.0533

Sequence	binding signal [E-score]
AAGTTGCA	0.0234
CACATGAC	-0.0544
CCGTTAAG	-0.0647
ACGAAAAG	-0.102
AAGGGTCG	0.188
ATTCCAAC	-0.113
CGCTGAGA	-0.0841
TAACGGTA	-0.13
CAGTTGCG	-0.0873
AGAGGACA	0.148
GAAATGTA	-0.263
CCTGCAGC	-0.0407
CTTGCACC	0.166
ACTATAAT	0.0185
AGTGACCA	-0.0304
CTGGAGTC	0.184
ATCTGTAG	-0.0884
ACGGGGTC	0.214
CACGACAA	0.0685
AGTACAGC	-0.232
AGTTATTA	-0.00447
CAATCTGA	-0.224
CATTATTC	-0.0129
CTCATGAC	0.113
CCTACACC	0.482

Sequence	binding signal [E-score]
CCTGTTCC	-0.0843
AAAGAACT	-0.245
GGCATATA	0.0529
ATACTCCA	0.189
GCAGGCGC	-0.218
ACCACTCG	0.122
GACTAGTA	-0.166
CAGCAACA	-0.0392
AACGACCC	0.0499
ACTGAAGG	-0.00662
AGCGGACA	0.0943
AATACCAA	-0.0576
TAAACTAA	-0.015
GTAATACA	0.105
ATCGTATG	-0.165
GCCACACA	0.147
AAGCACTT	-0.141
CAGCTCAC	-0.238
GCTCATAA	-0.267
